The target of test [1] is PGRMC1 Y113F mutant (a.a.44–195) (human) (UniProt O00264). Description: SEC; with haem, ferric or ferrous (5 mmol l^−1 dithionite); Superdex 200, 20 mmol l^−1 Tris-HCl (pH 7.5), 100 mmol l^−1 NaCl, 10 μg protein; both purified. For orientation: In gel filtration, larger molecules generally elute earlier.
Test [2] deals with FLAG-PGRMC1 wild-type (a.a.44–195) (human) (UniProt O00264). Description: co-IP; in vitro binding assay as a14 with FLAG-PGRMC1 in apo form (no haemin); both purified.
For test [3] the target is unchanged. Description: condition: only with 10 μmol l^−1 CORM3 (CO-releasing molecule); co-IP; in vitro binding assay as a14, haem-bound FLAG-PGRMC1, 5 mmol l^−1 sodium dithionite, with 10 μmol l^−1 CORM3 (CO-releasing molecule); both purified.
Test [4] addresses FLAG-PGRMC1 Y113F mutant (a.a.44–195) (human) (UniProt O00264). As to the kind of experiment: co-IP; in vitro binding assay: 1 μg purified EGFR with 10 μg FLAG-PGRMC1 (a.a.44–195) treated with 50 μmol l^−1 haemin, anti-FLAG (M2) agarose; 20 mmol l^−1 HEPES-NaOH (pH 7.9), 100 mmol l^−1 NaCl, 0.2 mmol l^−1 EDTA, 10% glycerol, 0.1% NP40, room temperature; both purified.
For test [5], the target named is FLAG-PGRMC1 wild-type (full length) (human) (UniProt O00264). As to the kind of experiment: co-IP; FLAG-PGRMC1 over-expressed in HCT116 cells, NP40 lysis buffer (20 mmol l^−1 Tris-HCl (pH 7.5), 150 mmol l^−1 NaCl, 1% NP40), anti-FLAG (M2) agarose, blots for PGRMC1 and EGFR; cells with or without 250 μmol l^−1 succinylacetone (SA) for 48 h.
For test [6], the target named is FLAG-PGRMC1 Y113F (full length) (human) (UniProt O00264). Described as above.
Test [7] has as its target C129S mutant of PGRMC1 expressed in cells (human) (UniProt O00264). The description is as above.

Amino acid sequences for entries named in this document (tags omitted). A change or cut given only in a name is not applied to a line headed by its entry. Chains listed by the source or under a name are the forms on record and can include a tag or linker. Residues count along the entry.
UniProt O00264: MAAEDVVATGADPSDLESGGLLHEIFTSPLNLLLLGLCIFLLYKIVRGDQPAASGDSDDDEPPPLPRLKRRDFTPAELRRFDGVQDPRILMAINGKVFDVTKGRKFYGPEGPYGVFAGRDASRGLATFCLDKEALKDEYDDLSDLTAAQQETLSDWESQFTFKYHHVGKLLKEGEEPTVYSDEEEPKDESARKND
FLAG-PGRMC1 wild-type (a.a.44–195): residues 44-195 of O00264
PGRMC1 Y113F mutant (a.a.44–195) (O00264, form named): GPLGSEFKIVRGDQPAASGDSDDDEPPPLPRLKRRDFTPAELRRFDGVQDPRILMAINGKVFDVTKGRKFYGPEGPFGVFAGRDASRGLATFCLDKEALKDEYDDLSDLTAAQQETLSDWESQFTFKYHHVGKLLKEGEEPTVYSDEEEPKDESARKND
FLAG-PGRMC1 Y113F mutant (a.a.44–195) (O00264, form named): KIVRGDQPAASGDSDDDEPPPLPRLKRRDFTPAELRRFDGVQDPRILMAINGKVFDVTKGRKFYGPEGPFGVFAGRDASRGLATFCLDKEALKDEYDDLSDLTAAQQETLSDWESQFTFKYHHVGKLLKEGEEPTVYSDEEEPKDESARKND

Results are given in words; binding and its absence hold for the method and conditions named. For some of these results: Binding seen in cells or lysates may run through a third protein. Some binding calls cover weakened binding; strength is not graded here.

With “PGRMC1 Y113F mutant (a.a.44–195) (from UniProt O00264 44-195) (domain or fragment)”, in test [1], the binding result is listed as “no binding”.
Turning to “purified EGFR (epidermal growth factor receptor) (from UniProt P00533 25-1210)”, the binding entry is reported as “no binding (condition: without haem (apo form))” in test [2], “no binding” in test [3] and “no binding” in test [4].
Regarding “EGFR of HCT116 cells (from UniProt P00533 25-1210) (receptor)”, the binding result in test [5] is “binds”; in test [6], “no binding”; in test [7] it was “binds”.
